# From ChEMBL document CHEMBL4888484, “Replenishing the malaria drug discovery pipeline: Screening and hit evaluation of the MMV Hit Generation Library 1 (HGL1) against asexual blood stage Plasmodium falciparum ,using a nano luciferase reporter read-out” (2022)
# The campaign covered roughly 150,000 compounds. About 540 (0.36%) showed an effect of 50% or more. This is one part of the list.
# System: Plasmodium falciparum
# Experiment: Primary screen in NF54 nanoGlo assay, in single point, at 2uM, 72h; a lower Z score goes with more inhibition
# Type: functional, Erythrocyte
# Conditions: timepoint 72 hour
SMILES,% Inhibition,Z score
CCOc1ncccc1CNC(=O)C[C@H]1C(=O)N(C)C(=O)N1C,-18%,3.33
CN(CC(=O)NC(C)(C)C)C(=O)c1ccc(Br)cc1O,-13%,2
O=C(O)c1cc(-c2ccc(-c3ccccc3)cc2)on1,-7%,1.23
CC(NC(CC1CCOC1)c1ccccc1)c1nc2ccccc2o1 (centres undefined),12%,-1.11
O=C(Nc1ccc2nc3n(c(=O)c2c1)CCCC3)c1ccc(F)cc1,-7%,0.92
COCCN1CC[C@H](NC(=O)c2sccc2S(=O)(=O)N(C)C)C1,-10%,1.3
Cc1cc(O)nc(C(=O)N2CC(O)(C3CC3)C2)c1,0%,0.08
c1csc(Cc2n[nH]c(CN3CCCC3)n2)c1,9%,-1.12
C[C@@]1(C(=O)NCCCc2ccccc2)CCCCC(=O)N1,3%,-0.3
CC(=O)NCCc1nc(C2(c3ccccc3)CC2)nn1C1Cc2ccccc2C1,-9%,1.14
O=C(NCCc1ccc(F)cc1)[C@@H]1CCCCO1,-3%,0.51
Cc1cccc2c(N3CCC[C@H]3c3nncn3CC(C)C)ncnc12,-3%,0.29
Cc1nc(COC2CCN(C(=O)[C@H]3CCC(=O)N3)C2)cs1 (some centres undefined),-8%,1.15
O=C1CC(CC(=O)N2CC3CCC2C3)(c2ccccc2)C(=O)N1CCCOc1cccnc1 (centres undefined),11%,-1.5
CCCn1cnnc1CN(C)C(=O)N[C@H]1CCN(C)C[C@H]1Cc1ccccc1,-4%,0.8
C[C@@H](C(=O)Nc1ccc(Cl)cn1)N1CCNC(=O)C1,-10%,0.87
CCOC(=O)NC1CCN([C@@H](C)C(=O)NC(C)(C)CC)CC1,6%,-0.72
CN(C[C@@H]1CC=CCC1)C(=O)c1cnnn1C,2%,-0.27
CCc1nc(C#N)cc(N2CCOC[C@@H]2Cc2ccccc2)n1,-14%,1.14
Cn1nnc2cc(CN3CCO[C@@]4(CCCOC4)C3)ccc21,-6%,1.1
O=C(c1cccc(Cl)c1)[C@H]1CCCN(C(=O)CN2CCOCC2)C1,-5%,0.89

SMILES,% Inhibition,Z score
Cc1nc(CC#N)sc1C(=O)OC(C)(C)C,2%,-0.25
Oc1c(Cl)c(Nc2ccccc2)c(O)n1-c1ccccc1,27%,-3.59
Cn1ccnc1[C@@H]1c2nc[nH]c2CCN1Cc1cn(CC(N)=O)c2ccccc12,-3%,0.37
CN1CCC(N(c2ccccc2)S(=O)(=O)c2ccc(C(C)(C)C)s2)CC1,-1%,0.07
Cc1nn(C(C)(C)C)cc1C(C)NC(=O)N(C)CC1CCCC1O (centres undefined),-10%,1.74
Clc1ccccc1CCn1ccnc1[C@@H]1CCCCO1,-8%,1.15
OC1(C(F)(F)F)CCN(Cc2c[nH]nc2-c2cccnc2)CC1,-18%,1.54
CCc1ccc([C@@H]2CN(C(=O)Nc3ccc4[nH]ccc4c3)CCO2)cc1,4%,-0.53
COc1ccc(OC)c(-c2cc(C(=O)N3CC[C@H](N4C(=O)COC4=O)C3)n(C)n2)c1,-9%,1.05
CC(C)c1ccn(C2(C(=O)O)CCN(c3nccc4occc34)CC2)n1,-11%,1.84
COc1cccc(Cn2cnc(C)c(C)c2=O)c1Cl,6%,-0.74
CCCOC1(CNC(=O)[C@@H]2CCCN2C(=O)c2ccccn2)CCCCC1,-11%,1.45
CNCC=CCOc1ccc(C)c(C)c1,2%,-0.28
CN(C)c1nc(-c2ccccc2CN2CCOCC2)ncc1F,-8%,1.53
Cn1ccc(C(=O)N2CCC[C@H](c3cc(F)ccc3F)C2)cc1=O,1%,-0.16
c1ccc(C[C@H](NCCc2ccc3c(c2)OCO3)C2CC2)nc1,-5%,0.64
Cc1nc([C@@H]2CCCN2Cc2nnn(C)n2)cs1,-7%,1.27
CS(=O)(=O)N1C[C@H]2CC[C@@H](C1)N(C(=O)Cc1ccc(F)cc1F)C2,-3%,0.49
CCC[C@H]1CN(c2nc3ccccc3n2CCO)C[C@@H]1N,-1%,0.11
C[C@]1(O)CCN(Cc2ccc3c(c2)OCCO3)C[C@H]1Cc1ccccc1,-5%,0.88
COc1cccc(CN(Cc2ccc(CC3CCN(C)CC3)cc2)C2CC2)c1,-7%,1.34
